In all, about 2,900 compounds were measured (“NF-kB SEAP reporter activity, fold change vs agonist alone”: median about 0.99, highest 2% from about 2.6 on). The list shows a part of the results.
Assays:
RAW-Dual [1] = assay: NF-kB SEAP reporter activity, fold change vs agonist alone; cytotoxicity flag (confluency mask): cytotoxic (confluency <70% of control); higher = enhanced NF-kB activity
How it was run: (§1)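 Reporter activity is given as fold change relative to agonist-alone wells. To measure it, 50 nL of library stock was pin-tooled onto RAW-Dual macrophages (50,000 cells/well, DMEM, 384-well plates), a PRR agonist followed 1 h later, and cells stayed at 37 °C, 5% CO2. Twenty hours on, supernatant was assayed for IRF (QuantiLuc luminescence) and NF-κB (QuantiBlue, 620 nm absorbance), and wells under 70% of agonist-control IncuCyte confluency in both mask sets were marked cytotoxic.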

RAW-Dual [2] = assay: NF-kB SEAP reporter activity, fold change vs agonist alone; higher = enhanced NF-kB activity
How it was run: as §1

RAW-Dual [3] = assay: NF-kB SEAP reporter activity, fold change vs agonist alone; cytotoxicity flag (confluency mask): not cytotoxic; higher = enhanced NF-kB activity
How it was run: as §1

[4] = agonist: ODN 1826 (TLR9) 0.5 ug/mL
[5] = agonist: Pam2CSK4 (TLR2/6) 0.1 ug/mL
[6] = agonist: Pam3CSK4 (TLR2/1) 0.1 ug/mL
[7] = library stock concentration (final ~1000-fold dilution): 10 mM, cytotoxicity flag (confluency mask): cytotoxic (confluency <70% of control), agonist: Imiquimod (TLR7) […]
[8] = library stock concentration (final ~1000-fold dilution): 10 mM, cytotoxicity flag (confluency mask): cytotoxic (confluency <70% of control), agonist: MPLA (TLR4) […]
[9] = library stock concentration (final ~1000-fold dilution): 10 mM, cytotoxicity flag (confluency mask): not cytotoxic, agonist: Imiquimod (TLR7) […]
[10] = library stock concentration (final ~1000-fold dilution): 10 mM, cytotoxicity flag (confluency mask): not cytotoxic, agonist: MPLA (TLR4) […]

COc1cc(Nc2ncc(F)c(Nc3ccc4c(n3)NC(=O)C(C)(C)O4)n2)cc(OC)c1OC (library stock concentration (final ~1000-fold dilution): 10 mM)
NF-kB SEAP reporter activity (RAW-Dual [1]; agonist: LPS (TLR4) 0.1 ug/mL): 0.494 | NF-kB SEAP reporter activity (RAW-Dual [1]; [4]): 0.706 | NF-kB SEAP reporter activity (RAW-Dual [1]; [5]): 0.343 | NF-kB SEAP reporter activity (RAW-Dual [1]; [6]): 0.287

COc1cc(Nc2ncc(F)c(Nc3ccc4c(n3)NC(=O)C(C)(C)O4)n2)cc(OC)c1OC
NF-kB SEAP reporter activity (RAW-Dual [2]; [7]): 1.09 | NF-kB SEAP reporter activity (RAW-Dual [2]; [8]): 0.935

O=C(O)CCC(=O)Nc1ccc(Br)cn1 (library stock concentration (final ~1000-fold dilution): 10 mM)
NF-kB SEAP reporter activity (RAW-Dual [3]; agonist: LPS (TLR4) 0.1 ug/mL): 1.32 | NF-kB SEAP reporter activity (RAW-Dual [3]; [4]): 1.08 | NF-kB SEAP reporter activity (RAW-Dual [3]; [5]): 1.12 | NF-kB SEAP reporter activity (RAW-Dual [3]; [6]): 1.01

O=C(O)CCC(=O)Nc1ccc(Br)cn1
NF-kB SEAP reporter activity (RAW-Dual [2]; [9]): 0.981 | NF-kB SEAP reporter activity (RAW-Dual [2]; [10]): 1.02

COc1ccc(C(=O)Nc2sc3c(c2C(N)=O)CCCC3)cc1OC
NF-kB SEAP reporter activity (RAW-Dual [2]; [9]): 0.874 | NF-kB SEAP reporter activity (RAW-Dual [2]; [10]): 0.972

COc1ccc(C(=O)Nc2sc3c(c2C(N)=O)CCCC3)cc1OC (library stock concentration (final ~1000-fold dilution): 10 mM)
NF-kB SEAP reporter activity (RAW-Dual [3]; agonist: LPS (TLR4) 0.1 ug/mL): 1.16 | NF-kB SEAP reporter activity (RAW-Dual [3]; [4]): 0.988 | NF-kB SEAP reporter activity (RAW-Dual [3]; [5]): 0.923 | NF-kB SEAP reporter activity (RAW-Dual [3]; [6]): 0.889

CC(O)C(=O)O.CC(O)C(=O)O.CN1CCN(c2ccc3nc(-c4c(N)c5c(F)cccc5[nH]c4=O)[nH]c3c2)CC1 (library stock concentration (final ~1000-fold dilution): 10 mM)
NF-kB SEAP reporter activity (RAW-Dual [1]; agonist: LPS (TLR4) 0.1 ug/mL): 0.292 | NF-kB SEAP reporter activity (RAW-Dual [1]; [4]): 0.23 | NF-kB SEAP reporter activity (RAW-Dual [1]; [5]): 0.347 | NF-kB SEAP reporter activity (RAW-Dual [1]; [6]): 0.26

CC(O)C(=O)O.CC(O)C(=O)O.CN1CCN(c2ccc3nc(-c4c(N)c5c(F)cccc5[nH]c4=O)[nH]c3c2)CC1
NF-kB SEAP reporter activity (RAW-Dual [2]; [7]): 1.2 | NF-kB SEAP reporter activity (RAW-Dual [2]; [8]): 0.674

CC(N)(Cc1ccc(O)c(O)c1)C(=O)O (configuration not stated)
NF-kB SEAP reporter activity (RAW-Dual [2]; library stock concentration (final ~1000-fold dilution): 2 mM, cytotoxicity flag (confluency mask): not cytotoxic, agonist: Imiquimod (TLR7) […]): 0.9 | NF-kB SEAP reporter activity (RAW-Dual [2]; library stock concentration (final ~1000-fold dilution): 2 mM, cytotoxicity flag (confluency mask): not cytotoxic, agonist: MPLA (TLR4) […]): 1.08

CC(N)(Cc1ccc(O)c(O)c1)C(=O)O (configuration not stated) (library stock concentration (final ~1000-fold dilution): 2 mM)
NF-kB SEAP reporter activity (RAW-Dual [3]; agonist: LPS (TLR4) 0.1 ug/mL): 1.26 | NF-kB SEAP reporter activity (RAW-Dual [3]; [4]): 1.07 | NF-kB SEAP reporter activity (RAW-Dual [3]; [5]): 1.08 | NF-kB SEAP reporter activity (RAW-Dual [3]; [6]): 1.05

CC(=O)N1CCC(Nc2cc(C(=O)NCC(O)CN3CCc4ccccc4C3)ncn2)CC1 (configuration not stated)
NF-kB SEAP reporter activity (RAW-Dual [2]; [9]): 0.92 | NF-kB SEAP reporter activity (RAW-Dual [2]; [10]): 1.03

CC(=O)N1CCC(Nc2cc(C(=O)NCC(O)CN3CCc4ccccc4C3)ncn2)CC1 (configuration not stated) (library stock concentration (final ~1000-fold dilution): 10 mM)
NF-kB SEAP reporter activity (RAW-Dual [3]; agonist: LPS (TLR4) 0.1 ug/mL): 1.08 | NF-kB SEAP reporter activity (RAW-Dual [3]; [4]): 0.948 | NF-kB SEAP reporter activity (RAW-Dual [3]; [5]): 1.13 | NF-kB SEAP reporter activity (RAW-Dual [3]; [6]): 1.17

CC(=O)NO (library stock concentration (final ~1000-fold dilution): 10 mM)
NF-kB SEAP reporter activity (RAW-Dual [3]; agonist: LPS (TLR4) 0.1 ug/mL): 0.973 | NF-kB SEAP reporter activity (RAW-Dual [3]; [4]): 1.02 | NF-kB SEAP reporter activity (RAW-Dual [3]; [5]): 0.894 | NF-kB SEAP reporter activity (RAW-Dual [3]; [6]): 1.07

CC(=O)NO
NF-kB SEAP reporter activity (RAW-Dual [2]; [9]): 0.966 | NF-kB SEAP reporter activity (RAW-Dual [2]; [10]): 1.01

Cc1nc(Nc2ncc(C(=O)Nc3cc(NC(=O)c4cccc(C(F)(F)F)c4)ccc3C)s2)cc(N2CCN(CCO)CC2)n1
NF-kB SEAP reporter activity (RAW-Dual [2]; [9]): 1.06 | NF-kB SEAP reporter activity (RAW-Dual [2]; [10]): 1.08

Cc1nc(Nc2ncc(C(=O)Nc3cc(NC(=O)c4cccc(C(F)(F)F)c4)ccc3C)s2)cc(N2CCN(CCO)CC2)n1 (library stock concentration (final ~1000-fold dilution): 10 mM)
NF-kB SEAP reporter activity (RAW-Dual [3]; agonist: LPS (TLR4) 0.1 ug/mL): 0.472 | NF-kB SEAP reporter activity (RAW-Dual [3]; [4]): 0.971 | NF-kB SEAP reporter activity (RAW-Dual [3]; [5]): 0.285 | NF-kB SEAP reporter activity (RAW-Dual [3]; [6]): 0.381

Cc1cc(C(=O)NNCc2ccccc2)no1
NF-kB SEAP reporter activity (RAW-Dual [2]; [9]): 0.939 | NF-kB SEAP reporter activity (RAW-Dual [2]; [10]): 0.993

Cc1cc(C(=O)NNCc2ccccc2)no1 (library stock concentration (final ~1000-fold dilution): 10 mM)
NF-kB SEAP reporter activity (RAW-Dual [3]; agonist: LPS (TLR4) 0.1 ug/mL): 1.21 | NF-kB SEAP reporter activity (RAW-Dual [3]; [4]): 0.961 | NF-kB SEAP reporter activity (RAW-Dual [3]; [5]): 1.02 | NF-kB SEAP reporter activity (RAW-Dual [3]; [6]): 1.34

O=c1cc(-c2ccc(O)c(O)c2)oc2cc(O)c(C3OC(CO)C(O)C(O)C3O)c(O)c12 (configuration not stated)
NF-kB SEAP reporter activity (RAW-Dual [2]; [9]): 0.899 | NF-kB SEAP reporter activity (RAW-Dual [2]; [10]): 1

O=c1cc(-c2ccc(O)c(O)c2)oc2cc(O)c(C3OC(CO)C(O)C(O)C3O)c(O)c12 (configuration not stated) (library stock concentration (final ~1000-fold dilution): 10 mM)
NF-kB SEAP reporter activity (RAW-Dual [3]; agonist: LPS (TLR4) 0.1 ug/mL): 0.836 | NF-kB SEAP reporter activity (RAW-Dual [3]; [4]): 0.897 | NF-kB SEAP reporter activity (RAW-Dual [3]; [5]): 1.05 | NF-kB SEAP reporter activity (RAW-Dual [3]; [6]): 1.07

Cc1cccc(/C=N/Nc2cc(N3CCOCC3)nc(OCCc3ccccn3)n2)c1 (library stock concentration (final ~1000-fold dilution): 10 mM)
NF-kB SEAP reporter activity (RAW-Dual [3]; agonist: LPS (TLR4) 0.1 ug/mL): 2.52 | NF-kB SEAP reporter activity (RAW-Dual [3]; [4]): 1.2 | NF-kB SEAP reporter activity (RAW-Dual [3]; [5]): 1.05 | NF-kB SEAP reporter activity (RAW-Dual [3]; [6]): 1.54

Cc1cccc(/C=N/Nc2cc(N3CCOCC3)nc(OCCc3ccccn3)n2)c1
NF-kB SEAP reporter activity (RAW-Dual [2]; [9]): 2.47 | NF-kB SEAP reporter activity (RAW-Dual [2]; [10]): 2.3

Cn1c(=O)c2c(ncn2CC(=O)O)n(C)c1=O (library stock concentration (final ~1000-fold dilution): 10 mM)
NF-kB SEAP reporter activity (RAW-Dual [3]; agonist: LPS (TLR4) 0.1 ug/mL): 0.931 | NF-kB SEAP reporter activity (RAW-Dual [3]; [4]): 0.916 | NF-kB SEAP reporter activity (RAW-Dual [3]; [5]): 1.11 | NF-kB SEAP reporter activity (RAW-Dual [3]; [6]): 1.03

Cn1c(=O)c2c(ncn2CC(=O)O)n(C)c1=O
NF-kB SEAP reporter activity (RAW-Dual [2]; [9]): 0.897 | NF-kB SEAP reporter activity (RAW-Dual [2]; [10]): 1.05

CC1CC(=O)c2c(ccc3c2C(=O)c2cccc(O)c2C3=O)C1 (configuration not stated) (library stock concentration (final ~1000-fold dilution): 10 mM)
NF-kB SEAP reporter activity (RAW-Dual [3]; agonist: LPS (TLR4) 0.1 ug/mL): 1.64 | NF-kB SEAP reporter activity (RAW-Dual [3]; [4]): 1.14 | NF-kB SEAP reporter activity (RAW-Dual [3]; [5]): 1.09 | NF-kB SEAP reporter activity (RAW-Dual [3]; [6]): 0.991

CC1CC(=O)c2c(ccc3c2C(=O)c2cccc(O)c2C3=O)C1 (configuration not stated)
NF-kB SEAP reporter activity (RAW-Dual [2]; [9]): 1.02 | NF-kB SEAP reporter activity (RAW-Dual [2]; [10]): 1.26

CS(=O)(=O)c1cccc(CNc2nc(Nc3ccc4c(c3)CCC(=O)N4)ncc2C(F)(F)F)c1 (library stock concentration (final ~1000-fold dilution): 10 mM)
NF-kB SEAP reporter activity (RAW-Dual [3]; agonist: LPS (TLR4) 0.1 ug/mL): 0.902 | NF-kB SEAP reporter activity (RAW-Dual [3]; [4]): 1.75 | NF-kB SEAP reporter activity (RAW-Dual [3]; [5]): 0.592 | NF-kB SEAP reporter activity (RAW-Dual [3]; [6]): 0.821

— the supplement of paper PMC10037445
